Test results taken from the supplement of paper PMC11417369.
The other results are listed elsewhere or left out.

The sequences below were run on PfAP2-HC AP2 domain (GST-tagged) (assay: gcPBM binding intensity (ln(normalized median fluorescence intensity)); higher = stronger DNA binding).
How it was run: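 Plasmodium falciparum DNA-binding domains carrying a GST tag were expressed in E. coli and applied for 1 h, at about 25 μg on average, to an Agilent 4 × 180k array. The array held primer-extended double-stranded 36-bp intergenic genomic probes together with negative controls, and binding took place in 1× PBS with 1% milk, 0.2 mg/ml BSA, 0.5% salmon testes DNA and 0.03% Triton X-100. An Alexa488 anti-GST antibody detected bound protein, and the array was scanned at 488 nm. Binding intensity is taken as the highest Masliner-normalised natural-log median intensity across replicate spots of either probe orientation.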

| Sequence | gcPBM binding intensity (ln) |
| --- | --- |
| TTATAGTATTTATAATGTACAAATATATTTTATTTT [XGTACX_site5015] | 9.62 |
| ATATATATATTTATAGTGCATTTATATTAAAATATC [GTGCAC_site9818] | 9.53 |
| TCAAATAGAAAATAAAGTACTTAATTTTTAGGAACA [XGTACX_site1446] | 9.61 |
| TTGAATATTTAAAAACGTACATAAAATTATTTGATT [XGTACX_site5422] | 9.52 |
| ATATTTATATTTTTTTGTACATATATAATTTTATAA [XGTACX_site4151] | 9.63 |
| ATATATATTTATATATGTACATATTAATATATATAT [XGTACX_site1144] | 9.53 |
| ACATATTTATATATGTGTACATAAATATTCTTTTAA [XGTACX_site8238] | 9.71 |
| ATAAAAAAATCAGACACACACACGTAAACCCATACA [CACACA_site2773] | 10.6 |
| ATTTATTTTTTTATCACACATTTGTGAAATGTGCAT [CACACA_site5869] | 9.82 |
| ATATTAAGGTTTATATTTTAACTTATTATTTTATTC [CACACA_negctrl_site795] | 9.65 |
| AAAAAAAAAAAACACACACACACACCCATATACATA [CACACA_site2664] | 11 |
| GTAAAAAGATAATGAAGTACATTTTTTCATTTTTAT [XGTACX_site5579] | 9.57 |
| CATATCCTTACGAACTGTACAATATTAAGAATAAAA [XGTACX_site1651] | 9.49 |
| ATATATTCAATTCATACACACACAATTTAAGAATGA [CACACA_site9289] | 10.2 |
| CTAGACTTTATTAATTGTACATATGTGTATTTTATA [XGTACX_site480] | 9.66 |
| GTCTATAACTATTGCGCACACTTTAAAAAAAAAGAA [CACACA_site1003] | 9.88 |
| TAGAAGCATTGACACACACACATACATACACATACA [CACACA_site6802] | 11.2 |
| TATATATATATATAATGTACATAATAATAATACATC [XGTACX_site5587] | 9.78 |
| TTTTCCTTTACATAATGTACACAAAAAAAAAAAAAA [XGTACX_site716] | 9.18 |
| GTTACTGCATACATAACACACATATTCAAAACCCAT [CACACA_site5856] | 9.81 |
| AATACAGACAGACACACACACAAAATAAAATACAAA [CACACA_site245] | 10.5 |
| CATCATAGAGTGGAGTGTACAAATATGTCAACATAT [XGTACX_site2264] | 9.75 |
| TCTTTTTTTTGAATTTGTACATAAGACAATAAAAAA [XGTACX_site4682] | 9.21 |
| TTAACAGTAAAACACAGTACATATATACTTAAAACA [XGTACX_site1930] | 9.79 |
| ATTTTTTTCCTAATGGTGCGAATAAATATCCATACC | 9.58 |
